For this assay, the target named is Nonstructural protein 3 (Zika virus) (UniProt A0A024AXB9).
[1] abbreviates: PRVABC59, Concentration 50.0 uM, Number of replicates 1.0.
[2] abbreviates: PRVABC59, Concentration 15.0 uM, Number of replicates 1.0.
The mark [3] stands for this setting: PRVABC59, Concentration 10.0 uM, Number of replicates 1.0.

A word on the inhibition: it is the drop in the measured response relative to a control, in per cent.

The whole screen tested about 2,700 compounds, of which about 160 (5.9%) showed an effect of 50% or more. The list shows a part of the results. Where a SMILES comes first, the peptide text is derived from it. The star is where a group is joined. pNA = O=[N+]([O-])c1ccc(N*)cc1

UniProt A0A024AXB9, sequence (A0A024AXB9 as listed by the source): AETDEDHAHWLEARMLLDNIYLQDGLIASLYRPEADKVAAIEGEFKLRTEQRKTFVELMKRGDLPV

With `CCCOc1cccc(CCNC(=O)C2CCN(c3ccc(C=O)cc3)CC2)c1`, under setting [1], the inhibition amounted to 15.3%.

As for `C[C@H]1CN(C(=O)c2cc(Cl)ccc2NS(=O)(=O)c2ccc(Oc3ccccc3Cl)cc2)CCN1C(=O)OC(C)(C)C`, under setting [2], the inhibition came to 11.1%.

As for `COc1ncc(Br)cc1NC(=O)C1CCN(c2ccc(C=O)cc2)CC1`, the inhibition under setting [1] was found to be 20.2%.

For `COC(=O)c1cncc(NC(=O)c2cc(OC)nc(N3CCNCC3)n2)c1`, the inhibition is, setting by setting: (PRVABC59, Concentration 49.5 uM, Number of replicates 2.0, Standard deviation 3.1296386813485726 %) -5.04%; (PRVABC59, Concentration 99.01 uM, Number of replicates 2.0, Standard deviation 2.0436234712667796 %) -3.72%; (PRVABC59, Concentration 198.0 uM, Number of replicates 2.0, Standard deviation 1.6779911310650717 %) 0.151%.

Regarding `CC(C)[C@H](NC(=O)C1CCN(c2ccc(C=O)cc2)CC1)c1ccccn1`, under setting [3], the inhibition worked out at 23.4%.

Consider `CC(C)n1cnnc1CCNC(=O)C1CCN(c2ccc(C=O)cc2)CC1`, for which, under setting [1], the inhibition stood at 21.2%.

For `C[C@@H](Cc1ccc(C(F)(F)F)cc1)NC(=O)c1cc(Cl)ccc1NS(=O)(=O)c1ccc(Oc2ccccc2Cl)cc1`, under setting [2], the inhibition was found to be 26.2%.

`O=C(Nc1c(F)cc(F)cc1Cl)c1cc(Cl)ccc1NS(=O)(=O)c1ccc(Oc2ccccc2Cl)cc1`: the inhibition under setting [2] turned out to be 23.7%.

In the case of `CCc1nc(CCNC(=O)c2cc(Cl)ccc2NS(=O)(=O)c2ccc(Oc3ccccc3Cl)cc2)cs1`, the inhibition under setting [2] is 30.4%.

As to `COc1ccc([C@@H](C)NC(=O)c2cc(Cl)ccc2NS(=O)(=O)c2ccc(Oc3ccccc3Cl)cc2)cc1OC`, the inhibition under setting [2] is 25.3%.

Take `C[Si](C)(C)CN(Cc1ccccc1)C(=O)c1cc(Cl)ccc1NS(=O)(=O)c1ccc(Oc2ccccc2Cl)cc1`: under setting [2], the inhibition is 24.7%.

Consider `Cn1cc(NC(=O)c2ccccc2C(F)(F)F)c(-c2ccc(CO)cc2)n1`, for which the inhibition reads like this: (PRVABC59, Concentration 49.5 uM, Number of replicates 2.0, Standard deviation 1.2953568364677661 %) -2.01%; (PRVABC59, Concentration 99.01 uM, Number of replicates 2.0, Standard deviation 3.1096735084747196 %) -1.36%; (PRVABC59, Concentration 198.0 uM, Number of replicates 2.0, Standard deviation 3.9065016999811366 %) -0.871%.

`COc1ccc(CN(C(=O)c2cc(Cl)ccc2NS(=O)(=O)c2ccc(Oc3ccccc3Cl)cc2)C2CC2)cc1`: the inhibition under setting [2] was 21.4%.

For `O=C(/C=C/c1ccccc1)C(=O)N1CCOCC1`, the inhibition (PRVABC59, Concentration 200.0 uM, Number of replicates 1.0) is 28.6%.

As to `O=C(c1cc(Cl)ccc1NS(=O)(=O)c1ccc(Oc2ccccc2Cl)cc1)N1CCN(c2ncccc2[N+](=O)[O-])CC1`, the inhibition under setting [2] was found to be 17.7%.

For the molecule `O=Cc1ccc(N2CCC(C(=O)Nc3cccc4ccc(O)cc34)CC2)cc1`, the inhibition under setting [1] was found to be 42%.

As for `COc1ccc([C@@H]2CCCN2C(=O)c2cc(Cl)ccc2NS(=O)(=O)c2ccc(Oc3ccccc3Cl)cc2)cc1`, the inhibition under setting [2] was found to be 12%.

Regarding `C[C@H](NC(=O)C1CCN(c2ccc(C=O)cc2)CC1)c1cccc2ccccc12`, the inhibition under setting [3] worked out at 5.9%.

`COc1cc(NC(=O)c2cc(Cl)ccc2NS(=O)(=O)c2ccc(Oc3ccccc3Cl)cc2)cc(OC)c1`: the inhibition under setting [2] stood at 24.1%.

Take `CC(C)Cn1cccc(C(=O)Nc2ccncc2)c1=O`: the inhibition by setting is: (PRVABC59, Concentration 49.5 uM, Number of replicates 2.0, Standard deviation 4.325265790408527 %) 3.56%; (PRVABC59, Concentration 99.01 uM, Number of replicates 2.0, Standard deviation 0.42415753833763237 %) 1.89%; (PRVABC59, Concentration 198.0 uM, Number of replicates 2.0, Standard deviation 0.007608180505792547 %) 1.1%.

On to `CSCC[C@H](N)C(=O)N1CCC[C@H]1C(=O)Nc1ccc([N+](=O)[O-])cc1` (H-Met-Pro-pNA), for which the inhibition runs as follows: (PRVABC59, Concentration 49.5 uM, Number of replicates 2.0, Standard deviation 0.04379462170027595 %) 7.22%; (PRVABC59, Concentration 99.01 uM, Number of replicates 2.0, Standard deviation 0.1465435807480143 %) 14.2%; (PRVABC59, Concentration 198.0 uM, Number of replicates 2.0, Standard deviation 1.7147293588002597 %) 26.9%.

As for `Cc1ccccc1-c1noc(C)c1C(=O)N1CCC(n2cc(CO)nn2)CC1`, the inhibition (PRVABC59, Concentration 49.5 uM, Number of replicates 2.0, Standard deviation 1.9037948950109151 %) is 0.455%; the inhibition (PRVABC59, Concentration 99.01 uM, Number of replicates 2.0, Standard deviation 2.4661894603109435 %) was -0.679%; the inhibition (PRVABC59, Concentration 198.0 uM, Number of replicates 2.0, Standard deviation 2.12040622056229 %) is -0.665%.

As to `O=Cc1ccc(N2CCC(C(=O)N3CCN(c4ncccc4[N+](=O)[O-])CC3)CC2)cc1`, the inhibition under setting [1] was found to be 26.1%.

Take `O=C(NCCc1ccc2ccccc2c1)c1cc(Cl)ccc1NS(=O)(=O)c1ccc(Oc2ccccc2Cl)cc1`: under setting [2], the inhibition was 33.3%.

Regarding `O=C(NCc1c(Cl)cccc1Cl)c1cc(Cl)ccc1NS(=O)(=O)c1ccc(Oc2ccccc2Cl)cc1`, under setting [2], the inhibition was 42.6%.

With `CNC(=O)c1cccc(C(=O)Nc2ccncc2C)n1`, the inhibition (PRVABC59, Concentration 49.5 uM, Number of replicates 2.0, Standard deviation 2.1660905067522638 %) is -1.7%; the inhibition (PRVABC59, Concentration 99.01 uM, Number of replicates 2.0, Standard deviation 2.255810220661481 %) was -0.788%; the inhibition (PRVABC59, Concentration 198.0 uM, Number of replicates 2.0, Standard deviation 1.7328723600939488 %) came out at 1.3%.

In the case of `Cc1cc(CO)c2cccc(Cc3cccc(C(=O)N4CCCNCC4)c3)c2n1`, the inhibition (PRVABC59, Concentration 49.95 uM, Number of replicates 2.0, Standard deviation 0.5715370596790117 %) was -1.03% and the inhibition (PRVABC59, Concentration 99.9 uM, Number of replicates 2.0, Standard deviation 0.45618130389208883 %) is 19.9%.

As for `CC(=O)N[C@@H](CCCCN)C(=O)Nc1ccccc1Cc1cccc2c(CO)cc(C)nc12`, the inhibition is, setting by setting: (PRVABC59, Concentration 49.95 uM, Number of replicates 2.0, Standard deviation 1.4556435772845158 %) -3.65%; (PRVABC59, Concentration 99.9 uM, Number of replicates 2.0, Standard deviation 0.5191459981690598 %) 11.6%.

For `CN(CCO[Si](C)(C)C(C)(C)C)C(=O)c1cc(Cl)ccc1NS(=O)(=O)c1ccc(Oc2ccccc2Cl)cc1`, the inhibition under setting [2] is 15.3%.

For `O=C(NCc1cc(F)c(F)c(F)c1)c1cc(Cl)ccc1NS(=O)(=O)c1ccc(Oc2ccccc2Cl)cc1`, under setting [2], the inhibition came out at 31.9%.

Consider `Cc1cnccc1NC(=O)c1nn(C)c2c1CCCC2`, for which the inhibition (PRVABC59, Concentration 49.5 uM, Number of replicates 2.0, Standard deviation 8.288338929216017 %) came out at 7.59%; the inhibition (PRVABC59, Concentration 99.01 uM, Number of replicates 2.0, Standard deviation 2.172556918595184 %) amounted to 2.85%; the inhibition (PRVABC59, Concentration 198.0 uM, Number of replicates 2.0, Standard deviation 1.6680930279859854 %) came to 5.73%.

For `CC1(C)C[C@]1(CNC(=O)C1CCN(c2ccc(C=O)cc2)CC1)c1ccccc1`, the inhibition under setting [1] was determined as 7.47%.

As to `O=C(NCCc1ccc(Cl)cc1Cl)c1cc(Cl)ccc1NS(=O)(=O)c1ccc(Oc2ccccc2Cl)cc1`, the inhibition under setting [2] amounted to 27.1%.

On to `Cc1cnccc1NC(=O)c1cccc(-n2cnnn2)c1`, for which the inhibition is, setting by setting: (PRVABC59, Concentration 49.5 uM, Number of replicates 2.0, Standard deviation 4.148081450793093 %) -4.56%; (PRVABC59, Concentration 99.01 uM, Number of replicates 2.0, Standard deviation 2.8220872377424997 %) -2.1%; (PRVABC59, Concentration 198.0 uM, Number of replicates 2.0, Standard deviation 5.644174285824181 %) -3.31%.

Consider `Cc1cnccc1NC(=O)c1c(S(C)(=O)=O)cnn1C`, for which the inhibition (PRVABC59, Concentration 49.5 uM, Number of replicates 2.0, Standard deviation 1.8400748659883561 %) was -1.66%; the inhibition (PRVABC59, Concentration 99.01 uM, Number of replicates 2.0, Standard deviation 3.7772796310341294 %) is -1.4%; the inhibition (PRVABC59, Concentration 198.0 uM, Number of replicates 2.0, Standard deviation 2.96966138269359 %) was determined as 0.099%.

Turning to `Cc1cc(CO)c2cccc(Cc3cccc(NC(=O)[C@@H](N)CC(N)=O)c3)c2n1`, the inhibition (PRVABC59, Concentration 49.95 uM, Number of replicates 2.0, Standard deviation 1.7966513683626428 %) stood at 9.82% and the inhibition (PRVABC59, Concentration 99.9 uM, Number of replicates 2.0, Standard deviation 0.341007791078127 %) worked out at 28.2%.

As to `C[C@H](NC(=O)c1cc(Cl)ccc1NS(=O)(=O)c1ccc(Oc2ccccc2Cl)cc1)c1ccc2c(c1)CCCC2`, under setting [2], the inhibition was 18.7%.

Turning to `C[C@@H](c1ccccc1)N(Cc1ccncc1)C(=O)c1cc(Cl)ccc1NS(=O)(=O)c1ccc(Oc2ccccc2Cl)cc1`, the inhibition under setting [2] is 23.5%.

Turning to `O=C(c1cc(Cl)ccc1NS(=O)(=O)c1ccc(Oc2ccccc2Cl)cc1)N1Cc2ccc(Br)cc2C1`, under setting [2], the inhibition was found to be 20.6%.

Consider `O=C(c1cc(Cl)ccc1NS(=O)(=O)c1ccc(Oc2ccccc2Cl)cc1)N1CCC(c2cccc(Cl)c2)CC1`, for which, under setting [2], the inhibition amounted to 7.32%.

Turning to `O=C(Nc1nnc(C(F)(F)F)s1)c1cc(Cl)ccc1NS(=O)(=O)c1ccc(Oc2ccccc2Cl)cc1`, the inhibition under setting [2] was 22.6%.

For the molecule `CCCCCCCCCCNC(=O)c1cc(Cl)ccc1NS(=O)(=O)c1ccc(Oc2ccccc2Cl)cc1`, the inhibition under setting [2] came out at 27.1%.

In the case of `O=C(Nc1cc(Br)ccc1F)c1cc(Cl)ccc1NS(=O)(=O)c1ccc(Oc2ccccc2Cl)cc1`, the inhibition under setting [2] came to 24.4%.

As for `CNC(=O)c1ccncc1NS(=O)(=O)c1ccc(Oc2ccccc2Cl)cc1`, for the setting “PRVABC59, Concentration 49.5 uM, Number of replicates 2.0, Standard deviation 4.196010425451196 %”, the inhibition was -8.92%.

As to `O=Cc1ccc(N2CCC(C(=O)N3CCCC[C@H]3C(F)(F)F)CC2)cc1`, the inhibition under setting [1] amounted to 30.2%.

The values above are taken from ChEMBL document CHEMBL5606458, “ASAP - ZIKV NS2B-NS3 protease fluorescence single point” (2024).
